From patent US20120219559A1 (Johns Hopkins, published 2012) come the findings set out here.

Assay [1] addresses T1, human B7-H2Ig fusion protein (human, UniProt O75144 19-258).
T1 construct: Ig (Fc) part not given
T1 sequence: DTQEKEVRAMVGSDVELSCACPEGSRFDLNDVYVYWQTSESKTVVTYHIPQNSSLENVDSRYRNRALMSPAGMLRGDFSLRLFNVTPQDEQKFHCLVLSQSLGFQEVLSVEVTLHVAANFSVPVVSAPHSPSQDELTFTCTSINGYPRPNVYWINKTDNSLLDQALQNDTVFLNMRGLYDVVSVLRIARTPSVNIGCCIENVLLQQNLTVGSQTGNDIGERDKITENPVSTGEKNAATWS
Briefly: flow cytometry on 293T cells transfected with human CTLA-4; B7-H2Ig at 10 µg/ml. On the technique in general: In flow cytometry, cells or beads pass a laser one at a time.

The target of assay [2] is T2, B7-H2Ig (Mus musculus, UniProt Q9JHJ8).
T2 construct: Ig fusion protein purchased from R&D systems; also called mouse B7-H2Ig fusion protein
T2 sequence (fusion protein, looked up): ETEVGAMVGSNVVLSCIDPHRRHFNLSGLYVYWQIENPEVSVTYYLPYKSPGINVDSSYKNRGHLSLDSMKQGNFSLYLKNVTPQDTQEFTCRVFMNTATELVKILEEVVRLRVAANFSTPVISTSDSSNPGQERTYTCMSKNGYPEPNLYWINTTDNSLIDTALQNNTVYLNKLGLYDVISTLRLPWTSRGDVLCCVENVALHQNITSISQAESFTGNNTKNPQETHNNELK
Briefly: CDS well image, 293T cells transfected with the mouse gene, stained with the mouse fusion protein.

The target in assay [3] is T3, B7-DCIg (Mus musculus, UniProt Q9WUL5).
T3 construct: Ig fusion protein purchased from R&D systems; also called mouse B7-DCIg fusion protein
T3 sequence (fusion protein, looked up): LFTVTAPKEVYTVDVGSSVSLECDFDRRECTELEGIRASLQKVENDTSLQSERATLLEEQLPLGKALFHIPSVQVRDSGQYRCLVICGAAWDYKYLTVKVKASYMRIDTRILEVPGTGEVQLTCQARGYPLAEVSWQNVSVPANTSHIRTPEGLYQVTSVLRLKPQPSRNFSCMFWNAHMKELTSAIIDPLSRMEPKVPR
The assay is described as above.

For assay [4], the target named is T4, B7-H1Ig (Mus musculus, UniProt Q9EP73).
T4 construct: Ig fusion protein purchased from R&D systems; also called mouse B7-H1Ig fusion protein
The description is as above.

In assay [5] the target is T1, human B7-H2Ig fusion protein. Briefly: flow cytometry on 293T cells transfected with human CD28; B7-H2Ig at 10 µg/ml.

B1: human CTLA-4, full length, expressed on cells (CTLA-4+293T cells) (receptor)
chain: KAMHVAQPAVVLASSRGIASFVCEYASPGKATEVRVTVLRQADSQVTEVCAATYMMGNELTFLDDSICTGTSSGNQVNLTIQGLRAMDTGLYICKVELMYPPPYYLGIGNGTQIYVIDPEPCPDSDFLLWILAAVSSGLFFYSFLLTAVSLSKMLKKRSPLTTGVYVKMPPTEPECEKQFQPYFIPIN
Regarding B1, the binding result in assay [1] was “binds”.

B2: CTLA-4 (receptor)
membrane protein: not shown
Regarding B2, the binding result in assay [2], in assay [3] and in assay [4] was “no binding” in each case.

B3: human CD28, full length, expressed on cells (CD28+293T cells) (receptor)
chain: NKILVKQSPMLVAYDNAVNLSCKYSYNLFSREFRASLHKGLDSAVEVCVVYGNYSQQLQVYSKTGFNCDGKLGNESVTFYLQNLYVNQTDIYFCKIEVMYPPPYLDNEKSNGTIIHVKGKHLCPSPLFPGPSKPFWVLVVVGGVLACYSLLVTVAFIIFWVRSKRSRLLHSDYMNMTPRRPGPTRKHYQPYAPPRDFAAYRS
notes: This id also stands for CD28 on purified human T cells in the functional rows; also called CD28+ cells
In the case of B3, the binding result in assay [5] was “binds”.
